About 120 (0.25%) of roughly 48,000 compounds were called active. Roughly 4% stayed inconclusive and do not appear here. The call rests on the fitted dose curve; in most records, active means well fitted activation curve with a large enough effect; inconclusive means small, poorly fitted or top-dose-only effect, or another doubt; inactive means no such curve, though single readings can be large or run the other way. The list shows a part of the results.
experiment: Primary qHTS for Identification of Small Molecule Activators of Huntingtin-Antisense Promoter Activity; details: HEK293 HTT-AS promoter firefly luciferase reporter, 24 h; series mostly up to 57.5 µM; activity change, positive = activation: at the top concentration; further: nearly all actives have a fitted effect of over 55% in size
Procedure, shortened: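 Firefly luciferase signal from promoter-reporter HEK293 cells was scaled between vehicle (0%) and zero RLU (-100%). Compounds were tested at final concentrations of up to 57.5 uM over 24 h at 37 degrees C. PTC124 at 50 uM final served as control inhibitor.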

SMILES	activity change, positive = activation
Cc1ccc(-c2noc(-c3nnn(CC(=O)Nc4cc(C)cc(C)c4)c3N)n2)cc1	inactive: -0.0283%
CCCNC(=O)CSc1nc2nc(C)c(Cc3ccccc3Cl)c(C)n2n1	inactive: -0.796%
COc1ccc(CCCc2nnc(SCC(=O)Nc3ccc(C)cc3C)o2)cc1	inactive: -13.6%
CCN(CC)S(=O)(=O)c1cc(-c2onc(C)c2C)ccc1OC	inactive: -13.2%
O=S(=O)(NCc1cccc(Br)c1)c1ccc(-c2cc(C(F)(F)F)on2)s1	inactive: -23.8%
COc1ccccc1CNC(=O)CN1C(=O)COc2ccc(S(=O)(=O)N3CCCCC3)cc21	inactive: -6.88%
Cc1cc(C)cc(N2C(=O)N(CC(=O)c3ccc(Br)cc3)c3ccccc3S2(=O)=O)c1	inactive: -13.6%
COC(=O)c1sccc1S(=O)(=O)N(CC(=O)NCc1ccc(C)cc1)c1ccc(Cl)cc1	inactive: -34.8%
COc1ccc(C(=O)Nc2ccc3nc(SCC(=O)N4CCCc5ccccc54)sc3c2)cc1	inactive: -27.7%
CCN(CC)C(=O)c1sc2c(c1C)c(=O)n(-c1ccc(Cl)c(Cl)c1)c(=O)n2Cc1cc(=O)n2c(C)cccc2n1	inactive: -14.6%
CCCCn1cc(S(=O)(=O)c2ccc(OC)cc2)c(=O)c2cc(F)c(N3CCCC3)cc21	inactive: -4.23%
Cc1ccc(-c2nc(C)c(CCNS(=O)(=O)c3ccccc3F)s2)cc1	inactive: -2.98%
CN1C(=O)C(C)(C)c2cc(S(=O)(=O)NCc3ccc(C(=O)Nc4ccc(Cl)cc4)cc3)ccc21	inactive: -60.3%
Cc1cccc(NC(=O)N2CCC(CN3CCc4ccccc4C3)CC2)c1C	inactive: -11.8%
CCOc1ccc(NC(=O)Cn2cc(C(=O)c3ccc(C)c(C)c3)c(=O)c3cc4c(cc32)OCCO4)cc1	inactive: -18.1%
CCOc1ccc(-c2nc(SCC(=O)NCCOC)c(-c3ccc(OC)c(OC)c3)[nH]2)cc1	inactive: -9.45%
CCc1ccc(-n2nc(C)c3c(C(=O)Nc4cc(OC)cc(OC)c4)cc(C)nc32)cc1	inactive: -24.7%
CSc1nc2sc3c(c2c(=O)n1-c1ccc(F)c(Cl)c1)CCN(C(C)=O)C3	inactive: -13.2%
Cc1cc(C)cc(NC(=O)CSc2nc(-c3cccc(Cl)c3)nc3c2Cc2c(CO)cnc(C)c2O3)c1	inactive: -9.88%
COc1ccc(CNC(=O)Cn2c(SCC(=O)Nc3ccc(C)c(C)c3)nc3ccccc32)cc1	inactive: -44%
O=C(CSC1=Nc2ccccc2C2=NC(Cc3ccccc3)C(=O)N12)Nc1ccccc1F (stereo not drawn)	inactive: -3.2%
CCOC(=O)NC1(C(F)(F)F)NC(=O)N(c2ccc(C)c(C)c2)C1=O (stereo not drawn)	inactive: -23.7%

SMILES	activity change, positive = activation
COc1ccc(S(=O)(=O)NCCc2csc(-c3ccc(F)cc3)n2)cc1	inactive: -0.976%
Cc1cc(C)cc(OCC(=O)Nc2ccc(S(=O)(=O)Nc3onc(C)c3C)cc2)c1	inactive: -13.2%
COc1ccc(-n2nc(C(=O)Nc3cccc(C(F)(F)F)c3)c3c4ccccc4n(C)c3c2=O)cc1	inactive: -7.7%
Cc1nn(CC(=O)NCc2ccccc2Cl)c(=O)c2nn(-c3ccccc3)c(C)c12	inactive: -18%
Cc1ccccc1NC(=O)CSC1=Nc2ccccc2C2=NC(CCC(=O)NCc3ccccc3)C(=O)N12 (stereo not drawn)	inactive: -22.2%
CCN1CCC[C@H]1CNC(=O)c1c(OC)ccc(Br)c1OC	inactive: -6.02%
CCN1CCN(c2cc3c(cc2F)c(=O)c(C(=O)O)cn3C2CC2)CC1	inactive: -1.91%
CCCCn1c2ccc(F)cc2c2nnc(SCCN(CC)CC)nc21	inactive: -7.32%
Cc1ccc(CNC(=O)c2c3c(nc4ccccc24)C(=O)N(C2CCCCC2)C3)cc1	inactive: -23.2%
FC(F)c1nc2ccccc2n1-c1nc(N2CCOCC2)nc(N2CCOCC2)n1	inactive: -23%
COc1ccc(Cl)cc1NC(=O)CSc1nccn1Cc1ccco1	inactive: 0.0803%
Cc1csc2nc(COC(=O)c3ccccc3NC(=O)c3ccc(F)cc3)cc(=O)n12	inactive: -17.5%
COc1cccc(NC(=O)CSc2nc3ccccc3nc2N2CCOCC2)c1	inactive: -18.5%
CCc1ccc(CN2C(=O)c3ccccc3C2C(=O)NCCc2ccc(OC)c(OC)c2)cc1 (stereo not drawn)	inactive: -16.8%
CN(CC(=O)Nc1cccc(C(F)(F)F)c1)S(=O)(=O)c1ccc2[nH]c3c(c2c1)CCCC3	inactive: -28%
COc1ccc(NC(=O)c2cc3c(=O)[nH]c4ccccc4c3n2C)cc1Cl	inactive: -6.36%
CCCN(C(=O)CCc1nc(-c2ccccc2F)no1)c1ccc(CC)cc1	inactive: -15.3%
COc1ccc(CC(=O)NCc2nc3cccnc3n2Cc2ccc(F)cc2)cc1OC	inactive: -10.7%
Cc1ccccc1NC(=O)c1sc2nc3c(cc2c1N)CCCC3	inactive: 14.4%
Cc1ccc(C)c(N2CCN(C(=O)c3ccc(CS(=O)(=O)c4ccc(Br)cc4)o3)CC2)c1	inactive: -35%
CCOc1cc2[nH]c(=O)n(Cc3ccc(C(=O)NCCN(CC)CC)cc3)c(=O)c2cc1OCC	inactive: -4.73%
CCN(C(=O)c1oc2ccc(S(=O)(=O)N3CCCCCC3)cc2c1C)c1ccccc1	inactive: -8.87%

SMILES	activity change, positive = activation
CCOC(=O)c1cccc(NC(=O)CN2C(=O)CC(C)(C)Sc3ccccc32)c1	inactive: -12.5%
CCOC(=O)c1cc(S(=O)(=O)N2CCN(c3ccc(OC)cc3)CC2)[nH]n1	inactive: -9.32%
Cc1cccc(C)c1OCc1nc2c3cnn(-c4cccc(F)c4)c3ncn2n1	inactive: -0.652%
Cc1ccc(-n2ncc(C(=O)NCCN3CCc4ccccc4C3)c2C2CCN(C(=O)OC(C)(C)C)CC2)cc1	inactive: -32.3%
COc1ccc(CCNC(=O)CCCn2c(=O)c3ccccc3n(Cc3ccccc3C)c2=O)cc1OC	inactive: -13.5%
Cc1ccc(Nc2c(-c3ccc(N4CCOCC4)cc3)nc3ncccn23)cc1	inactive: -6.35%
Cc1ccc(C(=O)Nc2c(C(=O)NCc3ccc(Cl)cc3)sc3nc(C)cc(C)c23)cc1	inactive: -22.6%
CCOc1ccc(NC(=O)Cn2c(=O)n(CCc3ccccc3)c(=O)c3c4c(sc32)CN(C(C)=O)CC4)cc1	inactive: -21.8%
CCc1ccc(NC(=O)CSC2=Nc3ccccc3C3=NC(CCC(=O)NCc4ccccc4OC)C(=O)N23)cc1 (stereo not drawn)	inactive: 0.351%
CCOCCCNC(=O)c1cnc2sc(N3CCCCCC3)nn2c1=O	inactive: -4.3%
Cc1ccc(CC(=O)N(Cc2nc(-c3ccc(C)cc3)no2)C(C)C)cc1	inactive: -27.6%
O=C(CCc1nc(-c2ccccc2F)no1)Nc1cccc(C(F)(F)F)c1	inactive: -30.4%
Cc1nn(-c2ccccc2)c(OC(=O)c2ccc(Br)cc2)c1S(=O)(=O)c1ccccc1	inactive: -20.4%
CCOc1ccc(OCC)c(NC(=O)c2cc(C)nc3c2c(C)nn3-c2cccc(Cl)c2C)c1	inactive: -6.62%
Cn1c(=O)c2sccc2n2c(CCCC(=O)Nc3ccc(F)cc3F)nnc12	inactive: -11.9%
COCCCNc1ncnc2c1c(-c1ccccc1)cn2-c1ccc(C)c(Cl)c1	inactive: -6.93%
CCn1c(CN2CCN(c3cccc(Cl)c3)CC2)nc2c1c(=O)[nH]c(=O)n2C	inactive: -33.6%
O=C(COc1ccc(Cl)cc1)Nc1cc(-c2ccccc2)no1	inactive: 16.3%
C[C@@H]1C[C@H]2[C@@H]3CCC4=CC(=O)C=C[C@]4(C)[C@@]3(F)[C@@H](O)C[C@]2(C)[C@@]1(O)C(=O)CO	inactive: 3.12%
OC1(c2ccc(Cl)c(C(F)(F)F)c2)CCN(CCCC(c2ccc(F)cc2)c2ccc(F)cc2)CC1	inactive: -91.5%
COc1ccc(OC)c(NC(=O)CN2C(=O)CC(c3ccco3)Sc3ccccc32)c1 (stereo not drawn)	inactive: -32.7%
COc1ccc2c(c1)c1c(c(=O)n(-c3ccccc3C)c(=O)n1Cc1ccccc1C)n2C	inactive: -5.81%

SMILES	activity change, positive = activation
CCCCNc1sc(S(=O)(=O)CC)nc1S(=O)(=O)c1ccc(C)cc1	inactive: -19.9%
CNS(=O)(=O)c1cn(CC(=O)Nc2ccc(F)cc2F)cc1S(=O)(=O)NC	inactive: -13.2%
Cc1ccc(N2CC(c3nnc(Cc4ccc(Cl)cc4)o3)CC2=O)cc1 (stereo not drawn)	inactive: -24.9%
CC(=O)Nc1cc(C(=O)NCc2ccccc2)ccc1Sc1ccc(C)cc1	inactive: -19.5%
Cc1cccc(N2CCN(C(=O)Cn3c(=O)c4cccn4c4ccc(F)cc43)CC2C)c1 (stereo not drawn)	inactive: -26.4%
Cc1ccc(CNC(=O)C(C(C)C)N2Cc3ccccc3C2=O)cc1 (stereo not drawn)	inactive: -25.8%
Cc1cccc(C(=O)Nc2ccc(-c3nc4ccccc4s3)c(C)c2)c1	inactive: 18.8%
CO[C@H]1C[C@@H]2CC[C@@H](C)[C@@](O)(O2)C(=O)C(=O)N2CCCC[C@@H]2C(=O)O[C@H]([C@H](C)C[C@@H]2CC[C@H](OC(=O)C(C)(CO)CO)[C@H](OC)C2)CC(=O)[C@H](C)C=C(C)[C@@H](O)[C@@H](OC)C(=O)[C@H](C)C[C@H](C)C=CC=CC=C1C	inactive: -21.4%
CCN(c1ccc(OC)cc1)S(=O)(=O)c1c(C(=O)N2CCCCCC2)c(C)n(C)c1C	inactive: -4.19%
COc1ccc(N2CCN(CC(O)COc3ccccc3C(C)(C)C)CC2)cc1 (stereo not drawn)	inactive: 0.371% [at 11.5 µM, percent change from vehicle, -100% = no light]
O=C(NC1CCCCC1)c1ccc(Cn2c(SCc3cccc(F)c3)nc3cccnc32)cc1	inactive: -25.7%
CN(C(=O)CSc1cn(CC(=O)N2CCCCCC2)c2ccccc12)c1ccccc1	inactive: -24.9%
NC(=NCCCCCCN=C(N)N=C(N)Nc1ccc(Cl)cc1)N=C(N)Nc1ccc(Cl)cc1	inactive: -8.49%
COc1ccccc1CNC(=O)c1cn(C)c2ccc(S(=O)(=O)N3CCC(C)CC3)cc2c1=O	inactive: 10.4% [at 11.5 µM, percent change from vehicle, -100% = no light]
Cc1c(F)cccc1NC(=O)C1CCCN1S(=O)(=O)c1ccc(F)cc1 (stereo not drawn)	inactive: -13.6%
Cc1ccc(NC(=O)C2CCCN(S(=O)(=O)c3cccc4cccnc34)C2)cc1Cl (stereo not drawn)	inactive: -22.4%
Cc1ccc(C(=O)Nc2cccc(C(=O)OCc3cc(=O)n4c5c(sc4n3)CCCC5)c2)cc1	inactive: -31.3%
COc1cc(OC)c(NC(=O)c2ccc3nc(C(C)C)oc3c2)cc1Cl	inactive: -73.1%
Cc1ccc2[nH]cc(C(c3ccccc3)c3cccs3)c2c1 (stereo not drawn)	inactive: -36.8%
O=C(c1ccc2c(c1)OCO2)c1cn(Cc2ccc(F)cc2)c2ccccc2c1=O	inactive: -25.2%
Cn1nc(C(=O)N2CCN(c3ccccc3)CC2)c2c1-c1ccccc1SC2	inactive: -9.95%
CCCCN(CC)C(=O)Cn1c(=O)n(-c2ccc(OCC)cc2)c(=O)c2c3c(sc21)CCC3	inactive: -27.7%
